Reference: patent publication US20210070868A1 (published 2021)

T1: wild-type decoyMET (extracellular portion of human HGFR/MET: SEMA, PSI, IPT-1 to IPT-4) (UniProt P08581 25-932)
T1 chain: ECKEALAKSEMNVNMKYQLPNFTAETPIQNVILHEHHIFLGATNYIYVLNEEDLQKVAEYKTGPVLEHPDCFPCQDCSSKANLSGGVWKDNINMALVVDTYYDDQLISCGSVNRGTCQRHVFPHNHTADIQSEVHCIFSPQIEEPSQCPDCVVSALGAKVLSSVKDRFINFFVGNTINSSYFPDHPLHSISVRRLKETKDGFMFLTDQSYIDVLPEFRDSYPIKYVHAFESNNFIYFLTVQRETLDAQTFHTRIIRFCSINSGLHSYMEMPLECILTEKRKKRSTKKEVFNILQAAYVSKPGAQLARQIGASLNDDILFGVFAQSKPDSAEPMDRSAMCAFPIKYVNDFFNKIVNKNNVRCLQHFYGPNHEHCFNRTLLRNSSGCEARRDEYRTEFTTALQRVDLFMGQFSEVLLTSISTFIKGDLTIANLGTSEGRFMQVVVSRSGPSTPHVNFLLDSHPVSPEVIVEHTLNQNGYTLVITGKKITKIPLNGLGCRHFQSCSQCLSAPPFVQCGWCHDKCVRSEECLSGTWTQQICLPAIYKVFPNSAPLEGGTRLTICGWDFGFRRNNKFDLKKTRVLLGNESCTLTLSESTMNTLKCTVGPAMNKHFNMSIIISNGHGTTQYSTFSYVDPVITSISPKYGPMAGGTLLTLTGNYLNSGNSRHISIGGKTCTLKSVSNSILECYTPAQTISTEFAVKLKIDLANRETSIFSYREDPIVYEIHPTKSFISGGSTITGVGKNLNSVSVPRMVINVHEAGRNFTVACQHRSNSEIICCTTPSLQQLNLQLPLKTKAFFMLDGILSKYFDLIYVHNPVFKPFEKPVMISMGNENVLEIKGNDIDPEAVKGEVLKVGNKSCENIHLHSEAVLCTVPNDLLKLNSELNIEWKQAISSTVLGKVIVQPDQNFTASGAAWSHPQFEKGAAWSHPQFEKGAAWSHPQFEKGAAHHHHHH


What was measured:
[1] = target: Hepatocyte Growth Factor (HGF) (UniProt P14210 32-728); experiment: ELISA
[2] = target: T1, wild-type decoyMET (extracellular …); experiment: ELISA

UniProt P14210, sequence (P14210 32-728): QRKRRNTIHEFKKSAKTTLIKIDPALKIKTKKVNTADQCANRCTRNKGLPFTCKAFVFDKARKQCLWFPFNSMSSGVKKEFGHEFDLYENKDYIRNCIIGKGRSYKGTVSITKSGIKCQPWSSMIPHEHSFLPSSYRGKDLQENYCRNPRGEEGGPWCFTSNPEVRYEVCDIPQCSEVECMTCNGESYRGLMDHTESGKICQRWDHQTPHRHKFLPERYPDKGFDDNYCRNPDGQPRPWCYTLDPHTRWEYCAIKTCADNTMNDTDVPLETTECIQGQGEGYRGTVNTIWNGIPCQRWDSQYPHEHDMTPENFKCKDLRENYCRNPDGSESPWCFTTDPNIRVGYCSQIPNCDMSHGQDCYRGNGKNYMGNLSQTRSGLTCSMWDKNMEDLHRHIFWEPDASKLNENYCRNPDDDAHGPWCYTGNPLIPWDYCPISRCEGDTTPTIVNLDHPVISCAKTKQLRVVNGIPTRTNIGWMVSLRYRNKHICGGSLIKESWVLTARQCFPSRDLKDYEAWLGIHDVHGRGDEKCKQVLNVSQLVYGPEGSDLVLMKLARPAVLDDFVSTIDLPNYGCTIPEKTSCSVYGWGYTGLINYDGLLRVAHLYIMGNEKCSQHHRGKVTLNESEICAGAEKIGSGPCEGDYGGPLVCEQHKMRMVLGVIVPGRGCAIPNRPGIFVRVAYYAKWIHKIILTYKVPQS

Kd [1] [nM] | Kd [2] [nM] | Binder
0.187 | 6.21 | fusion protein with scMvDN30 at the N-terminal, linker L45 and decoyMET^K842E at the C-terminal (other) DIVLTQSPASLAVSLGQRATISCKASQSVDYDGGSYMSWFQQRPGQPPKLLISAASNLESGIPARFSGSGSGTDFTLNIHPVEEEDVATYYCQQSYEDPLTFGAGTKVEIKRTVAAPSVFIFPPSDEQLKSGTASVVCLLNNFYPREAKVQWKVDNALQSGNSQESVTEQDSKDSTYSLSSTLTLSKADYEKHKVYACEVTHQGLSSPVTKSFNRGECGGSSGSGSGSTGTSSSGTGTSAGTTGTSASTSGSGSGGGGGSGGGGSAGGTATAGASSGSVQLQQPGTELVKPGASVKLSCKASGYTFTSYWIHWVKQRPGQGLEWIGEINPSSGRTNYNEKFKNKVTVTVDKSSTTAYMQLSNLTSEDSAVYYCASRGYWGQGTTLTVSSASTKGPSVFPLAPSSKSTSGGTAALGCLVKDYFPEPVTVSWNSGALTSGVHTFPAVLQSSGLYSLSSVVTVPSSSLGTQTYICNVNHKPSNTKVDKKVEPKSCDKTHTAEAAAKEAAAKEAAAKEAAAKAAAEAAAKEAAAKEAAAKEAAAKAECKEALAKSEMNVNMKYQLPNFTAETPIQNVILHEHHIFLGATNYIYVLNEEDLQKVAEYKTGPVLEHPDCFPCQDCSSKANLSGGVWKDNINMALVVDTYYDDQLISCGSVNRGTCQRHVFPHNHTADIQSEVHCIFSPQIEEPSQCPDCVVSALGAKVLSSVKDRFINFFVGNTINSSYFPDHPLHSISVRRLKETKDGFMFLTDQSYIDVLPEFRDSYPIKYVHAFESNNFIYFLTVQRETLDAQTFHTRIIRFCSINSGLHSYMEMPLECILTEKRKKRSTKKEVFNILQAAYVSKPGAQLARQIGASLNDDILFGVFAQSKPDSAEPMDRSAMCAFPIKYVNDFFNKIVNKNNVRCLQHFYGPNHEHCFNRTLLRNSSGCEARRDEYRTEFTTALQRVDLFMGQFSEVLLTSISTFIKGDLTIANLGTSEGRFMQVVVSRSGPSTPHVNFLLDSHPVSPEVIVEHTLNQNGYTLVITGKKITKIPLNGLGCRHFQSCSQCLSAPPFVQCGWCHDKCVRSEECLSGTWTQQICLPAIYKVFPNSAPLEGGTRLTICGWDFGFRRNNKFDLKKTRVLLGNESCTLTLSESTMNTLKCTVGPAMNKHFNMSIIISNGHGTTQYSTFSYVDPVITSISPKYGPMAGGTLLTLTGNYLNSGNSRHISIGGKTCTLKSVSNSILECYTPAQTISTEFAVKLKIDLANRETSIFSYREDPIVYEIHPTKSFISGGSTITGVGKNLNSVSVPRMVINVHEAGRNFTVACQHRSNSEIICCTTPSLQQLNLQLPLKTKAFFMLDGILSKYFDLIYVHNPVFEPFEKPVMISMGNENVLEIKGNDIDPEAVKGEVLKVGNKSCENIHLHSEAVLCTVPNDLLKLNSELNIEWKQAISSTVLGKVIVQPDQNFTASGAAWSHPQFEKGAAWSHPQFEKGAAWSHPQFEKGAAHHHHHH
0.148 | 29.4 | fusion protein with decoyMET^K842E at the N-terminal, linker L45 and scMvDN30 at the C-terminal (other) ECKEALAKSEMNVNMKYQLPNFTAETPIQNVILHEHHIFLGATNYIYVLNEEDLQKVAEYKTGPVLEHPDCFPCQDCSSKANLSGGVWKDNINMALVVDTYYDDQLISCGSVNRGTCQRHVFPHNHTADIQSEVHCIFSPQIEEPSQCPDCVVSALGAKVLSSVKDRFINFFVGNTINSSYFPDHPLHSISVRRLKETKDGFMFLTDQSYIDVLPEFRDSYPIKYVHAFESNNFIYFLTVQRETLDAQTFHTRIIRFCSINSGLHSYMEMPLECILTEKRKKRSTKKEVFNILQAAYVSKPGAQLARQIGASLNDDILFGVFAQSKPDSAEPMDRSAMCAFPIKYVNDFFNKIVNKNNVRCLQHFYGPNHEHCFNRTLLRNSSGCEARRDEYRTEFTTALQRVDLFMGQFSEVLLTSISTFIKGDLTIANLGTSEGRFMQVVVSRSGPSTPHVNFLLDSHPVSPEVIVEHTLNQNGYTLVITGKKITKIPLNGLGCRHFQSCSQCLSAPPFVQCGWCHDKCVRSEECLSGTWTQQICLPAIYKVFPNSAPLEGGTRLTICGWDFGFRRNNKFDLKKTRVLLGNESCTLTLSESTMNTLKCTVGPAMNKHFNMSIIISNGHGTTQYSTFSYVDPVITSISPKYGPMAGGTLLTLTGNYLNSGNSRHISIGGKTCTLKSVSNSILECYTPAQTISTEFAVKLKIDLANRETSIFSYREDPIVYEIHPTKSFISGGSTITGVGKNLNSVSVPRMVINVHEAGRNFTVACQHRSNSEIICCTTPSLQQLNLQLPLKTKAFFMLDGILSKYFDLIYVHNPVFEPFEKPVMISMGNENVLEIKGNDIDPEAVKGEVLKVGNKSCENIHLHSEAVLCTVPNDLLKLNSELNIEWKQAISSTVLGKVIVQPDQNFTAEAAAKEAAAKEAAAKEAAAKAAAEAAAKEAAAKEAAAKEAAAKADIVLTQSPASLAVSLGQRATISCKASQSVDYDGGSYMSWFQQRPGQPPKLLISAASNLESGIPARFSGSGSGTDFTLNIHPVEEEDVATYYCQQSYEDPLTFGAGTKVEIKRTVAAPSVFIFPPSDEQLKSGTASVVCLLNNFYPREAKVQWKVDNALQSGNSQESVTEQDSKDSTYSLSSTLTLSKADYEKHKVYACEVTHQGLSSPVTKSFNRGECGGSSGSGSGSTGTSSSGTGTSAGTTGTSASTSGSGSGGGGGSGGGGSAGGTATAGASSGSVQLQQPGTELVKPGASVKLSCKASGYTFTSYWIHWVKQRPGQGLEWIGEINPSSGRTNYNEKFKNKVTVTVDKSSTTAYMQLSNLTSEDSAVYYCASRGYWGQGTTLTVSSASTKGPSVFPLAPSSKSTSGGTAALGCLVKDYFPEPVTVSWNSGALTSGVHTFPAVLQSSGLYSLSSVVTVPSSSLGTQTYICNVNHKPSNTKVDKKVEPKSCDKTHTTRGAAWSHPQFEKGAAWSHPQFEKGAAWSHPQFEKGAAHHHHHH
– | 4.53 | single chain MvDN30 (anti-HGFR single-chain Fab fragment) (Fab) DIVLTQSPASLAVSLGQRATISCKASQSVDYDGGSYMSWFQQRPGQPPKLLISAASNLESGIPARFSGSGSGTDFTLNIHPVEEEDVATYYCQQSYEDPLTFGAGTKVEIKRTVAAPSVFIFPPSDEQLKSGTASVVCLLNNFYPREAKVQWKVDNALQSGNSQESVTEQDSKDSTYSLSSTLTLSKADYEKHKVYACEVTHQGLSSPVTKSFNRGECGGSSGSGSGSTGTSSSGTGTSAGTTGTSASTSGSGSGGGGGSGGGGSAGGTATAGASSGSQLQQPGTELVKPGASVKLSCKASGYTFTSYWIHWVKQRPGQGLEWIGEINPSSGRTNYNEKFKNKVTVTVDKSSTTAYMQLSNLTSEDSAVYYCASRGYWGQGTTLTVSSASTKGPSVFPLAPSSKSTSGGTAALGCLVKDYFPEPVTVSWNSGALTSGVHTFPAVLQSSGLYSLSSVVTVPSSSLGTQTYICNVNHKPSNTKVDKKVEPKSCDKTHTTGTRGAAWSHPQFEKGAAWSHPQFEKGAAWSHPQFEKGAAHHHHHH
